Test results as given in PubChem BioAssay AID686979 (National Center for Advancing Translational Sciences (NCATS), 2013).
Values joined by “and” are separate entries in the source; they are usually repeats but may differ in a detail not shown here. Identical values can stand only once. About 50,000 (12%) of roughly 420,000 compounds were called active. The shares of active, inactive and inconclusive entries below differ from those in the screen. Calls come from the whole dose curve; as a rule, active = well fitted inhibition curve with a large enough effect; inconclusive = small, poorly fitted or top-dose-only effect; inactive = flat fitted curve, though single readings scatter. Potencies beside an inconclusive call are fits to weak or partial responses and may not hold up.

Assay: qHTS for Inhibitors of human tyrosyl-DNA phosphodiesterase 1 (TDP1): qHTS in cells in presence of CPT; note: nearly all actives have a fitted effect of over 55% in size
Settings: chicken DT40 Tdp1-/-;hTDP1 cells + 20 nM CPT, ATP luminescence, 48 h; activity change, negative = growth inhibition: at 46.2 µM (top of the series)
Method in brief: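 Chicken DT40 Tdp1-/- cells stably complemented with human TDP1 were seeded at 400 cells/well in medium containing 20 nM camptothecin, exposed to pin-transferred compounds, and grown at 37 °C for at least 48 hr. Viability was read as ATP luminescence.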
% is set by controls: 0 for no effect and ±100 for the full control effect; potency is the fitted concentration of half-maximal effect; tags give direction and shape of the fitted curve.

| Compound | Potency | activity change, negative = growth inhibition |
| --- | --- | --- |
| CN(c1ccccc1)C1CCCCC1NS(=O)(=O)c1ccc(Cl)cc1 (stereo not given) | inconclusive: 29.1 µM [inhibitor, single point] |  |
| CCC1CCCCN1CCCNC(=O)c1ccc2nc(N3CCC(C)CC3)sc2c1 (stereo not given) | inconclusive: 29.1 µM [inhibitor, single point] |  |
| O=C(NCCc1csc(-c2ccc(F)cc2)n1)c1c(F)cccc1Cl | active: 23.1 µM |  |
| COC(=O)[C@]12CCCCC=C1N(CCC1=CCCCC1)C(=O)[C@H](CC(=O)NCCC(C)C)C2 | inconclusive: 29.1 µM [inhibitor, single point] |  |
| CS(=O)(=O)N1CCC(Oc2ccccc2C(=O)N2CCCCC2CO)CC1 (stereo not given) | inactive |  |
| COc1cc(OC)c2ccc(=O)oc2c1C(CCN1CCCC1)c1ccc2c(c1)OCO2 (stereo not given) | inconclusive: 23.1 µM [inhibitor, single point] |  |
| Cc1cc([N+](=O)[O-])ccc1NC(=O)C1CCCO1 (stereo not given) | inactive |  |
| COc1ccc(Cl)cc1C(=O)N1CCN(Cc2ccc3c(c2)OCO3)CC1 | inconclusive: 18.4 µM [inhibitor, single point] |  |
| C[C@@H]1CCCCO[C@H](CN(C)Cc2ccc(Cl)c(Cl)c2)[C@H](C)CN([C@@H](C)CO)C(=O)c2cc(NC(=O)Nc3ccc(F)cc3)ccc2O1 | active: 9.2 µM |  |
| Cc1ccc(C(=O)NC(=S)N2CCN(c3cc(C)ccc3C)CC2)cc1 | inconclusive: 29.1 µM [inhibitor, single point] |  |
| CCN(CC(=O)NC(C)(C)C)C(=O)c1ccc2c(c1)S(=O)(=O)c1ccccc1C2=O | inactive |  |
| Cc1ccc(S(=O)(=O)Nc2cc(C(F)(F)F)ccc2N2CCOCC2)cc1C | inconclusive: 29.1 µM [inhibitor, single point] |  |
| COc1ccc(/C=C/C(=O)Nc2cccc(S(=O)(=O)NC3=NCCCCC3)c2)cc1 | inconclusive: 18.4 µM [inhibitor, single point] |  |
| COc1cc(C(=O)NCc2cc3ccccc3n2C)cc(OC)c1OC | inconclusive: 25.9 µM [inhibitor, single point] |  |
| O=C(Nc1cccc(O)c1)c1cccc(S(=O)(=O)N2CCCCCC2)c1 | inconclusive: 18.4 µM [inhibitor, single point] |  |
| CN(Cc1ccc(C(C)(C)C)cc1)Cc1cccc2ccccc12 | inactive and inconclusive: 33.5 µM [inhibitor, single point] |  |
| COc1ccc(/C=C2\SC(=O)N(CCNC(=O)Cc3coc4cc(OC)ccc34)C2=O)cc1 | inconclusive: 18.4 µM [inhibitor, single point] |  |
| COc1cccc(NC(=O)NC2(C(=O)N3CCN(C)CC3)CCCCC2)c1 | inactive |  |
| Cc1ccc(Nc2cc(C(=O)NCc3cccs3)c3ccccc3n2)c(C)c1 | inconclusive: 10.3 µM [inhibitor, partial curve] |  |
| CCCCn1c(=O)c2c(nc3n2CCCN3Cc2ccccc2)n(C)c1=O | inconclusive: 25.9 µM [inhibitor, single point] |  |
| Cc1ccc(OCC(=O)N2CC3(C)CC2CC(C)(C)C3)cc1 (stereo not given) | inconclusive: 29.1 µM [inhibitor, single point] |  |
| CC(=O)N(Cc1cc(=O)[nH]c2ccccc12)c1ccccc1 | inactive |  |
| COc1cccc(CN2CCNC(=O)C2CC(=O)NCCn2ccc3ccccc32)c1OC (stereo not given) | inactive |  |
| Cc1cccc(NC(=O)COC(=O)CCc2c[nH]c3ccccc23)c1 | inconclusive: 16.4 µM [inhibitor, single point] |  |

| Compound | Potency | activity change, negative = growth inhibition |
| --- | --- | --- |
| CC(=O)OCC1(C)CN(c2ccccc2)N(C(C)=O)C1=O (stereo not given) | inconclusive: 29.1 µM [inhibitor, single point] |  |
| CCCc1cnc(N2CCN(C(=O)c3ccccc3)CC2)nc1 | inconclusive: 16.4 µM [inhibitor, partial curve] |  |
| CCOC(=O)CC(=O)CSc1nnc2c(n1)[nH]c1ccccc12 | inconclusive: 25.9 µM [inhibitor, single point] |  |
| COc1ccc(C(C(=O)NC2CCCCC2)N(C(=O)c2sc(C)nc2C)c2ccccc2)cc1 (stereo not given) | inactive |  |
| COc1ccc(Nc2ncc3c(n2)CCN(C(=O)OC(C)(C)C)C3)cc1 | inconclusive: 18.4 µM [inhibitor, single point] |  |
| CCOc1cc(C(=O)NCc2ccc(-c3nc4ccccc4o3)cc2)cc(OCC)c1OCC | inconclusive: 35.5 µM [inhibitor, single point] |  |
| COc1ccccc1CNC(=O)C1CCC(CNS(=O)(=O)c2ccccc2)CC1 (stereo not given) | inactive |  |
| Cc1c(NC(=O)COC(=O)c2cccc(F)c2)c(=O)n(-c2ccccc2)n1C | inactive |  |
| Oc1ccccc1-c1cc(-c2ccc(F)cc2)n[nH]1 | inconclusive: 29.1 µM [inhibitor, single point] |  |
| OC(CN1CCOCC1)c1ccc(F)cc1 (stereo not given) | inactive |  |
| CCOC(=O)c1cc2c(=O)n3cccc(C)c3nc2n(CC(C)C)c1=NC(=O)c1ccco1 | inconclusive: 16.4 µM [inhibitor, single point] |  |
| O=C(Cc1cccc2ccccc12)NNC(=O)Nc1ccc(Cl)cc1 | inconclusive: 20.6 µM [inhibitor, single point] |  |
| O=C(CSc1nc(Cc2ccccc2)nc2ccccc12)Nc1nc2c(s1)CCCC2 | inconclusive: 1.3 µM [inhibitor, full curve, poor fit] |  |
| COc1cc2ccccc2cc1C(=O)Nc1ccc2oc(-c3ccccc3)nc2c1 | active: 16.4 µM |  |
| CCOc1ccccc1C(=O)N(Cc1cccs1)c1ccc(Cl)cc1 | active: 16.4 µM |  |
| S=C1NC(c2ccccc2)=NCN1c1ccc(Cl)cc1 | inactive |  |
| Cc1ccc(CN=c2c([N+](=O)[O-])nn(-c3ccc(Cl)cc3)n2O)cc1 | inconclusive: 11.6 µM [inhibitor, partial curve] |  |
| O=C(CCNC(=O)c1ccccc1Cl)NNC(=O)c1ccccc1O | inconclusive: 29.1 µM [inhibitor, single point] |  |
| Cc1cccc(N2CCN(C(=O)/C=C/c3ccco3)CC2)c1C | active: 16.4 µM |  |
| Cc1ccc(-c2cc(-c3ccc(F)cc3)n[nH]2)c(O)c1 |  | inconclusive: -31.4% [inhibitor] |
| O=C1CCCC2=C1C(c1ccncc1)n1c(nc3ccccc31)N2 (stereo not given) | inconclusive: 29.1 µM [inhibitor, single point] |  |
| COC(=O)c1ccc(C(=O)N2CCc3c(C(=O)NC(C)c4ccco4)c(OC)cc(=O)n3CC2)cc1 (stereo not given) | inactive |  |
| CN(Cc1nc2c(s1)CCCC2)C(=O)CCc1nnc(-c2ccccc2)o1 | inactive |  |
| Cc1ccccc1C(=O)NC(=S)NC1CC1 |  | inconclusive: -30.3% [inhibitor] |

| Compound | Potency | activity change, negative = growth inhibition |
| --- | --- | --- |
| COc1ccc(C)cc1Nc1n[n+](-c2ccccc2)c(-c2ccc(NC(C)=O)cc2)s1 | inconclusive: 11.6 µM [inhibitor, partial curve] |  |
| O=C(O)C(Cc1ccccc1)N1C(=O)CCC1=O (stereo not given) | inactive |  |
| Cn1c(N)c(C(=O)COC(=O)c2cc3ccccc3cc2O)c(=O)n(C)c1=O | inactive |  |
| Cc1c(OCC(=O)NCC(O)c2ccccc2)ccc2c3c(c(=O)oc12)CCCC3 (stereo not given) | inconclusive: 16.4 µM [inhibitor, single point] |  |
| CCc1ccc2c(c1)-c1ccccc1S(=O)(=O)N2CC(=O)N1CCC(C)CC1 | active: 16.4 µM |  |
| COc1cc(NC(=S)NC2CC2)c(OC)cc1Cl | inconclusive: 29.1 µM [inhibitor, single point] |  |
| Cc1ccc(CNC(=O)CCS(=O)(=O)c2ccc3c(c2)NC(=O)CO3)cc1 |  | inconclusive: -33.2% [inhibitor] |
| CC1CCCCN1CCCNC(=O)c1nn(C)c2c1CSc1ccccc1-2 (stereo not given) | inconclusive: 29.1 µM [inhibitor, single point] |  |
| Cn1cc([N+](=O)[O-])c(C(=O)Nc2cc(Oc3cccnc3)cc([N+](=O)[O-])c2)n1 | inactive |  |
| Cc1cc(O)c(-c2ccnc3cc(-c4ccccc4)nn23)cc1Cl | inconclusive: 23.1 µM [inhibitor, partial curve] |  |
| Cc1nc(N2CCN(Cc3ccccc3)CC2)c(C#N)c2c1COC(C)(C)C2 | inconclusive: 29.1 µM [inhibitor, single point] |  |
| Cc1ccccc1CNC(=O)CCC(=O)N1CC2CCCN2c2ccccc21 (stereo not given) | active: 18.4 µM |  |
| CCn1cc(/C=N\NC(=O)c2ccc(F)cc2)cn1 | inactive |  |
| CCCN(CC(=O)Nc1ccccc1C)C(=O)C1CCN(S(=O)(=O)c2ccc(C)c(C)c2)CC1 | inconclusive: 29.1 µM [inhibitor, single point] |  |
| CC(=O)NCCC(=O)Nc1cccc(S(=O)(=O)N(C)c2ccccc2)c1 | inactive |  |
| COc1ccccc1CNc1ncnc2c1c(-c1ccccc1)cn2-c1cccc(C)c1 | inconclusive: 18.4 µM [inhibitor, single point] |  |
| COc1ccccc1C(=O)Nc1nc2nc(C)c(Cc3ccccc3)c(=O)n2[nH]1 | inactive |  |
| NNc1nc(Nc2ccc([N+](=O)[O-])cc2)nc(N2CCCCCC2)n1 | inconclusive: 18.4 µM [inhibitor, single point] |  |
| CC(=O)c1ccc(NC(=O)Cn2ncc3c(C)n(Cc4ccc(F)cc4)c(C)c3c2=O)cc1 | inactive |  |
| COc1ccc2cc(C(=O)C3CCCN(Cc4cnc(N5CCOCC5)s4)C3)ccc2c1 (stereo not given) | inconclusive: 29.1 µM [inhibitor, single point] |  |
| O=C(CC(c1ccccc1)c1ccccc1)Nc1ccncc1 | inconclusive: 14.6 µM [inhibitor, single point] |  |
| CC1CCN(CCCNC(=O)c2cc3c(Cl)nc4ccccc4c3s2)CC1 | inconclusive: 29.1 µM [inhibitor, single point] |  |
